Reference: PubChem BioAssay AID1030 (National Center for Advancing Translational Sciences (NCATS), 2008)
Among all 220,000 compounds or so, about 16,000 (7.3%) were called active. The inconclusive results got no clear call from the source; some entries with a clear call stand among them for comparison. The call rests on the fitted dose curve; in most records, active means well fitted inhibition curve with a large enough effect (not every such curve was filed as active); inconclusive means small, poorly fitted or top-dose-only effect, or another doubt; inactive means no such curve, though single readings can be large or run the other way. No potency is given beside an inconclusive call; the fits are too rough.

molecular target: Aldehyde dehydrogenase 1A1 (Homo sapiens) (UniProt P00352); experiment: qHTS Assay for Inhibitors of Aldehyde Dehydrogenase 1 (ALDH1A1); details: Purified ALDH1A1, NADH fluorescence, propionaldehyde substrate; series mostly up to 75.3 µM
Potency means the concentration at half of the fitted maximal effect; tags describe the fitted curve by direction and shape.

UniProt P00352, sequence (P00352 whole entry, looked up): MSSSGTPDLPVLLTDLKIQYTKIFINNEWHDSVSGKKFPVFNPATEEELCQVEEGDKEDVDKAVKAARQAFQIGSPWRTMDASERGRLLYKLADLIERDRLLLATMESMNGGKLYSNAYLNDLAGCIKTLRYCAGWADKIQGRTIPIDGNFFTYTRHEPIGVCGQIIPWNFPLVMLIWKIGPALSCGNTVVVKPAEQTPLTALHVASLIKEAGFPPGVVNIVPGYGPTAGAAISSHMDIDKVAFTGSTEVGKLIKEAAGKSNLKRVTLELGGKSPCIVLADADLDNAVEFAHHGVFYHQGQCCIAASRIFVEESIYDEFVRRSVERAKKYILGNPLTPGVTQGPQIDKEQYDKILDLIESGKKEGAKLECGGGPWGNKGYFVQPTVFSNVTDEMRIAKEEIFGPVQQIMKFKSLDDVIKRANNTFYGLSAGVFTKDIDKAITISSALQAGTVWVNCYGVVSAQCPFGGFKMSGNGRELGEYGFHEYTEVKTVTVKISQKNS

Row | SMILES | Potency
1 | CCO/C=C1/C(=O)N(C(C)=O)c2ccccc21 | inconclusive [inhibitor, single point]
2 | Cc1cc(C(=O)OCC(=O)N2CCN(c3ccccc3)CC2)c2ccccc2n1 | active: 22.4 µM
3 | CCC1=C(OC(=O)N(CC)CC)N2C(=O)OC(=NCCOC)[C@]2(C)[C@H]2C1=CC[C@H]1C(=O)NC(=O)[C@H]12 | inactive
4 | CCOC(=O)C1(Cc2ccc(Cl)cc2)CCN(C(=O)c2sc(C)nc2C)CC1 | active: 35.5 µM
5 | CCN1C(=O)/C(=C2/Sc3ccccc3N2CC)S/C1=N\c1ncn[nH]1 | inconclusive [inhibitor, partial curve]
6 | CC(=O)COC(=O)c1cc(-c2ccc(C)cc2)nc2ccccc12 | inconclusive [inhibitor, partial curve]
7 | O=C(CSc1n[nH]c(-c2ccncc2)n1)c1ccccc1 | inactive
8 | CCCn1c(C)cc(C(=O)COC(=O)c2c(C)nn(-c3ccccc3)c2C)c1C | inconclusive [inhibitor, single point]
9 | Cc1nnc(SCc2nnc(-c3ccccc3Br)o2)n1-c1ccccc1 | inactive
10 | CCCCN(CCCC)CCNC(=O)CSCc1ccc(C)cc1 | active: 28.2 µM
11 | O=C(O)COc1ccc2c3c(c(=O)oc2c1)CCCC3 | inconclusive [inhibitor, partial curve]
12 | CCOC(=O)Cn1c(=O)oc2cc(S(=O)(=O)Nc3ccc(N(CC)CC)cc3C)ccc21 | inconclusive [inhibitor, single point]
13 | COc1ccc(-n2c(Cn3nnc4ccccc43)n[nH]c2=S)cc1 | inactive
14 | CCOc1ccc(CN2CCN(C3CCSCC3)CC2CCO)cc1 (stereo not given) | inactive
15 | CCc1ccc(C(=O)N2CCN(c3ccc(F)cc3)CC2)s1 | inactive
16 | Cc1ccc(NS(=O)(=O)c2ccc3[nH]c(=O)[nH]c3c2)c(C)c1 | inconclusive [inhibitor, single point]
17 | Cc1cc(/C=C2/SC(=O)N(CC(=O)N3CCCC3)C2=O)ccc1N1CCOCC1 | inactive
18 | C=CCn1c(SCc2nc3ccccc3c(=O)[nH]2)nc2ccccc2c1=O | inconclusive [inhibitor, single point]
19 | COc1cc2cc(CN(CCCO)S(=O)(=O)c3ccccc3Cl)c(=O)[nH]c2cc1OC | inconclusive [inhibitor, partial curve]
20 | COc1ccc(C(=O)c2cc([N+](=O)[O-])ccc2N2CCOCC2)cc1 | inactive
21 | O=C(O)c1cc(-c2ccccc2)nc2nc(N3CCCCC3)sc12 | inconclusive [inhibitor, partial curve]
22 | CCOC(=O)c1ccc(COC(=O)CCc2nc(-c3ccccc3)c(-c3ccccc3)o2)cc1 | inconclusive [inhibitor, single point]
23 | Cc1ccc(N2C(=O)c3ccc(N)cc3C2=O)cc1C | inconclusive [inhibitor, single point]
24 | O=C1C(Cl)=C(N2CCCCC2)C(=O)N1c1ccccc1Cl | inconclusive [inhibitor, single point]
25 | COc1ccc(NC(=O)CC2Nc3ccccc3NC2=O)c([N+](=O)[O-])c1 (stereo not given) | inconclusive [inhibitor, single point]

Row | SMILES | Potency
26 | COc1ccc(-n2c(Cc3cccn3C)nnc2SCC(=O)Nc2ccc(Cl)cc2)cc1 | active: 3.98 µM
27 | CC1CN(C(=S)c2cccc([N+](=O)[O-])c2)CC(C)O1 (stereo not given) | active: 7.94 µM
28 | Cc1ccc(-c2[nH]nc3c2C(c2ccoc2)C(C#N)=C(N)O3)cc1C (stereo not given) | inactive
29 | CC(=O)Oc1ccc(C(=O)OCC(=O)c2c(N)n(C)c(=O)n(C)c2=O)cc1OC(C)=O | inactive
30 | Cc1cc(C)c2cc(CN(Cc3ccco3)C(=O)NCc3ccccc3)c(=O)[nH]c2c1 | inconclusive [inhibitor, partial curve]
31 | Cc1cc(=O)n(-c2ccc(C(=O)O)cc2)[nH]1 | inconclusive [inhibitor, single point]
32 | C/C(=N\NC(=O)c1ccc([N+](=O)[O-])cc1)c1c(O)cc(C)oc1=O | inconclusive [inhibitor, single point]
33 | CS(=O)(=O)CCCCN=C=S | inconclusive [inhibitor, single point]
34 | CN(Cc1ccccc1)C(=O)CSc1cc(=O)n(C)c2ccccc12 | inactive
35 | COC(=O)Nc1ccc(S(=O)(=O)N2CCCC(C(=O)NC3CCS(=O)(=O)C3)C2)cc1 (stereo not given) | inactive
36 | S=C(NCCC1=CCCCC1)NCc1ccco1 | inconclusive [inhibitor, single point]
37 | COc1ccc(OC)c(NS(=O)(=O)c2ccc(N3CCCC3=O)cc2)c1 | inactive
38 | COc1cc2c(cc1OC)C(=O)CCS2 | inconclusive [inhibitor, single point]
39 | O=C(Nc1ccc(NS(=O)(=O)c2ccccc2)cc1)c1cccnc1 | inconclusive [inhibitor, single point]
40 | Cc1ccccc1-n1c(SCC(=O)c2c(N)n(C)c(=O)n(C)c2=O)nc2sc3c(c2c1=O)CCCC3 | inconclusive [inhibitor, partial curve]
41 | CCOc1ccc(NC(C)C(=O)N/N=C/c2cccs2)cc1 (stereo not given) | inconclusive [inhibitor, single point]
42 | CCc1ccc(NC(=O)CC2NCCNC2=O)cc1 (stereo not given) | inactive
43 | CCn1cc(C(=O)NCCc2ccccc2)c(=O)c2cc(S(=O)(=O)N3CCCC3)ccc21 | active: 31.6 µM
44 | NC1=NC(c2ccccc2)N=C(Nc2ccccc2)N1 (stereo not given) | inactive
45 | Cc1nn(C)c(C)c1NC(=O)CSc1nc(C2CC2)nc2c1cnn2-c1ccccc1 | inactive
46 | COc1ccc(/C=N/NC(=O)CCc2c(C)n[nH]c2C)cc1OC | inconclusive [inhibitor, single point]
47 | Cc1nnc(NC(=O)/C=C/c2ccco2)s1 | inconclusive [inhibitor, single point]
48 | O=c1[nH]c(NCCO)nc2c1C1(CCCCC1)Cc1ccccc1-2 | inconclusive [inhibitor, partial curve]
49 | Cc1ccc(-c2csc(NC(=O)c3cccc(N4C(=O)CCC4=O)c3)n2)o1 | active: 3.55 µM
50 | CC1Cc2cc(-c3csc(NC(=O)Cc4ccccc4)n3)ccc2N1S(C)(=O)=O (stereo not given) | inconclusive [inhibitor, single point]

Row | SMILES | Potency
51 | CCOC(=O)c1cc(-c2csc(-c3ccc(C(C)(C)C)cc3)n2)on1 | inactive
52 | CC(C)(C)CC(C)(C)c1ccc(OCCO)cc1 | inactive
53 | CCc1nnc(NC(=O)c2ccc(-c3ccc(Cl)cc3)o2)s1 | inconclusive [inhibitor, partial curve]
54 | Cc1ccc(S(=O)(=O)NN2C(=O)c3ccccc3NC2c2ccccc2)cc1 (stereo not given) | inconclusive [inhibitor, partial curve]
55 | COCCn1c(=O)[nH]c(=O)c2cc(C(=O)c3cc(Cl)ccc3O)cnc21 | inconclusive [inhibitor, partial curve]
56 | COc1ccc(C(C(=O)Nc2ccc(C(C)C)cc2)N(Cc2ccco2)C(=O)CC2NC(=O)NC2=O)cc1 (stereo not given) | active: 25.1 µM
57 | COc1ccc(C2=NN(c3ccccc3)C(c3cn(CCC(=O)O)nc3-c3ccccc3)C2)cc1 (stereo not given) | inconclusive [inhibitor, partial curve]
58 | Nc1ccc(C(=O)OCC(=O)N2CCc3ccccc3C2)cc1[N+](=O)[O-] | inactive
59 | Cc1onc(-c2ccccc2Cl)c1C(=O)N(C)C1CCCCC1 | inconclusive [inhibitor, partial curve]
60 | C=CCNC(=O)/C(=C/c1ccco1)NC(=O)c1ccc(Br)o1 | inconclusive [inhibitor, single point]
61 | Cc1cc(C(=O)N/N=C2\CC(=O)CC(C)(C)C2)n[nH]1 | inactive
62 | CCOC(=O)c1c(-c2ccc(OC)cc2)csc1NC(=O)CCN1CCOCC1 | inconclusive [inhibitor, single point]
63 | COc1ccc(-n2c(O)c(/C=N/Nc3nc(C)cc(C)n3)c3ccccc3c2=O)cc1OC | active: 0.794 µM
64 | COc1ccc(S(=O)(=O)Nc2cc(C)c(O)c(S(=O)(=O)c3ccccc3)c2)cc1 | inconclusive [inhibitor, partial curve]
65 | O=C(NCc1ccccn1)c1ccc(N2CCCC2)c([N+](=O)[O-])c1 | inconclusive [inhibitor, single point]
66 | CN(C)C(=O)c1cc(S(=O)(=O)N(C)C)c(Cl)cc1N1CCCC1 | inconclusive [inhibitor, partial curve]
67 | Cc1cc(C)c(OCCOCCN(C)C)c(Br)c1 | inactive
68 | O=C1c2ccccc2CN1CCSC(=S)N1CCSCC1 | active: 10 µM
69 | COc1cccc(/C=C/c2ccc3ccccc3n2)c1OC(C)=O | inconclusive [inhibitor, single point]
70 | Cc1ccc2oc(Nc3nc(-c4ccccc4)cc(=O)[nH]3)nc2c1 | inactive
71 | CCC(=O)Oc1ccc(NC(=O)CSCc2ccccc2)cc1 | inactive
72 | Cc1cccc(C)c1OCc1n[nH]c(=S)o1 | active: 8.91 µM
73 | N/C(Cc1cccc2ccccc12)=N\OC(=O)c1cccs1 | inactive
74 | O=c1c([N+](=O)[O-])cccn1Cc1ccc(F)cc1Cl | inconclusive [inhibitor, partial curve]
75 | Nc1nnc(-c2ccccc2)c(-c2ccccc2)n1 | inactive
